Experimental data published in the CheMixHub viscosity set.
Where “and” joins values, the source holds several entries; their conditions need not be identical. Identical values can stand only once. The source gives many values for each of these; only a part stands here.

Assay: xn = mol fraction of the nth substance listed

CN(CCO)CCO + O
Conditions	viscosity
293.15 K, 101 kPa, x1 = 0.061	3.712 mPa·s
298.15 K, 100 kPa, x1 = 0.131	9.32 mPa·s
298.15 K, 101 kPa, x1 = 0.061	3.136 mPa·s
298.15 K, 101.3 kPa, x1 = 0.036	1.941 mPa·s
298.15 K, 101.3 kPa, x1 = 0.061	3.092 mPa·s
298.15 K, 101.3 kPa, x1 = 0.092	5.253 mPa·s
298.15 K, 101.3 kPa, x1 = 0.13	9.208 mPa·s
298.15 K, 101.33 kPa, x1 = 0.0079	1.059 mPa·s
298.15 K, 101.33 kPa, x1 = 0.0176	1.301 mPa·s
298.15 K, 101.33 kPa, x1 = 0.0364	1.901 mPa·s
298.15 K, 101.33 kPa, x1 = 0.0612	3.057 mPa·s
298.15 K, 101.33 kPa, x1 = 0.0923	5.172 mPa·s
298.15 K, 101.33 kPa, x1 = 0.1322	9.172 mPa·s
298.15 K, 101.33 kPa, x1 = 0.1859	17.02 mPa·s
298.15 K, 101.33 kPa, x1 = 0.2526	32.11 mPa·s
298.15 K, 101.33 kPa, x1 = 0.3021	43.51 mPa·s
298.15 K, 101.33 kPa, x1 = 0.3658	56.06 mPa·s
298.15 K, 101.33 kPa, x1 = 0.5026	74.16 mPa·s
298.15 K, 101.33 kPa, x1 = 0.5653	81.05 mPa·s
298.15 K, 101.33 kPa, x1 = 0.696	82.37 mPa·s
298.15 K, 101.33 kPa, x1 = 0.8989	78.87 mPa·s
303.15 K, 101 kPa, x1 = 0.0501	2.174 mPa·s
303.15 K, 101 kPa, x1 = 0.061	2.673 mPa·s
303.15 K, 101 kPa, x1 = 0.1	4.904 mPa·s
303.15 K, 101 kPa, x1 = 0.1501	9.146 mPa·s
303.15 K, 101 kPa, x1 = 0.1992	14.78 mPa·s
303.15 K, 101 kPa, x1 = 0.2459	21.18 mPa·s
303.15 K, 101 kPa, x1 = 0.2961	29.08 mPa·s
303.15 K, 101 kPa, x1 = 0.3981	43.5 mPa·s
303.15 K, 101 kPa, x1 = 0.5001	53.57 mPa·s
303.15 K, 101 kPa, x1 = 0.5938	58.78 mPa·s
303.15 K, 101 kPa, x1 = 0.7022	61.01 mPa·s
303.15 K, 101 kPa, x1 = 0.7945	60.73 mPa·s
303.15 K, 101 kPa, x1 = 0.9015	59.34 mPa·s
303.15 K, 101.33 kPa, x1 = 0.036	1.699 mPa·s
303.15 K, 101.33 kPa, x1 = 0.061	2.622 mPa·s
303.15 K, 101.33 kPa, x1 = 0.092	4.389 mPa·s and 4.343 mPa·s
303.15 K, 101.33 kPa, x1 = 0.13	7.47 mPa·s
308.15 K, 101 kPa, x1 = 0.0501	1.886 mPa·s
308.15 K, 101 kPa, x1 = 0.061	2.301 mPa·s
308.15 K, 101 kPa, x1 = 0.1	4.094 mPa·s
308.15 K, 101 kPa, x1 = 0.1501	7.4 mPa·s
308.15 K, 101 kPa, x1 = 0.1992	11.68 mPa·s
308.15 K, 101 kPa, x1 = 0.2459	16.45 mPa·s
308.15 K, 101 kPa, x1 = 0.2961	22.24 mPa·s
308.15 K, 101 kPa, x1 = 0.3981	32.75 mPa·s
308.15 K, 101 kPa, x1 = 0.5001	40.13 mPa·s
308.15 K, 101 kPa, x1 = 0.5938	44.07 mPa·s
308.15 K, 101 kPa, x1 = 0.7022	46.03 mPa·s
308.15 K, 101 kPa, x1 = 0.7945	46.01 mPa·s
308.15 K, 101 kPa, x1 = 0.9015	45.26 mPa·s
313.15 K, 100 kPa, x1 = 0.131	5.19 mPa·s and 5.193 mPa·s
313.15 K, 101 kPa, x1 = 0.0501	1.651 mPa·s
313.15 K, 101 kPa, x1 = 0.061	1.995 mPa·s
313.15 K, 101 kPa, x1 = 0.1	3.455 mPa·s
313.15 K, 101 kPa, x1 = 0.1501	6.075 mPa·s
313.15 K, 101 kPa, x1 = 0.1992	9.391 mPa·s
313.15 K, 101 kPa, x1 = 0.2459	12.98 mPa·s
313.15 K, 101 kPa, x1 = 0.2961	17.28 mPa·s
313.15 K, 101 kPa, x1 = 0.3981	25.13 mPa·s
313.15 K, 101 kPa, x1 = 0.5001	30.65 mPa·s
313.15 K, 101 kPa, x1 = 0.5938	33.67 mPa·s
313.15 K, 101 kPa, x1 = 0.7022	35.26 mPa·s
313.15 K, 101 kPa, x1 = 0.7945	35.38 mPa·s
313.15 K, 101 kPa, x1 = 0.9015	34.96 mPa·s
313.15 K, 101.33 kPa, x1 = 0.0079	0.756 mPa·s
313.15 K, 101.33 kPa, x1 = 0.0176	0.902 mPa·s
313.15 K, 101.33 kPa, x1 = 0.036	1.316 mPa·s
313.15 K, 101.33 kPa, x1 = 0.0364	1.26 mPa·s
313.15 K, 101.33 kPa, x1 = 0.0612	1.893 mPa·s
313.15 K, 101.33 kPa, x1 = 0.092	3.13 mPa·s
313.15 K, 101.33 kPa, x1 = 0.0923	2.995 mPa·s
313.15 K, 101.33 kPa, x1 = 0.1322	5.219 mPa·s
313.15 K, 101.33 kPa, x1 = 0.1859	8.843 mPa·s
313.15 K, 101.33 kPa, x1 = 0.2526	14.32 mPa·s
313.15 K, 101.33 kPa, x1 = 0.3021	18.62 mPa·s
313.15 K, 101.33 kPa, x1 = 0.3658	23.58 mPa·s
313.15 K, 101.33 kPa, x1 = 0.5026	31.33 mPa·s
313.15 K, 101.33 kPa, x1 = 0.5653	33.63 mPa·s
313.15 K, 101.33 kPa, x1 = 0.696	35.36 mPa·s
313.15 K, 101.33 kPa, x1 = 0.8989	34.89 mPa·s
318.15 K, 101 kPa, x1 = 0.0501	1.458 mPa·s
318.15 K, 101 kPa, x1 = 0.1	2.955 mPa·s
318.15 K, 101 kPa, x1 = 0.1501	5.053 mPa·s
318.15 K, 101 kPa, x1 = 0.1992	7.624 mPa·s
318.15 K, 101 kPa, x1 = 0.2459	10.4 mPa·s
318.15 K, 101 kPa, x1 = 0.2961	13.72 mPa·s
318.15 K, 101 kPa, x1 = 0.3981	19.57 mPa·s
318.15 K, 101 kPa, x1 = 0.5001	23.77 mPa·s
318.15 K, 101 kPa, x1 = 0.5938	26.18 mPa·s
318.15 K, 101 kPa, x1 = 0.7022	27.45 mPa·s
318.15 K, 101 kPa, x1 = 0.7945	27.68 mPa·s
318.15 K, 101 kPa, x1 = 0.9015	27.44 mPa·s
323.15 K, 101 kPa, x1 = 0.0501	1.299 mPa·s
323.15 K, 101 kPa, x1 = 0.1	2.547 mPa·s
323.15 K, 101 kPa, x1 = 0.1501	4.251 mPa·s
323.15 K, 101 kPa, x1 = 0.1992	6.288 mPa·s
323.15 K, 101 kPa, x1 = 0.2459	8.455 mPa·s
323.15 K, 101 kPa, x1 = 0.2961	10.98 mPa·s
323.15 K, 101 kPa, x1 = 0.3981	15.49 mPa·s
323.15 K, 101 kPa, x1 = 0.5001	18.74 mPa·s
323.15 K, 101 kPa, x1 = 0.5938	20.63 mPa·s
323.15 K, 101 kPa, x1 = 0.7022	21.69 mPa·s
323.15 K, 101 kPa, x1 = 0.7945	21.93 mPa·s
323.15 K, 101 kPa, x1 = 0.9015	21.89 mPa·s
323.15 K, 101.33 kPa, x1 = 0.036	1.048 mPa·s
323.15 K, 101.33 kPa, x1 = 0.092	2.322 mPa·s and 2.313 mPa·s
323.15 K, 101.33 kPa, x1 = 0.13	3.606 mPa·s

O=S(=O)([O-])[O-].[O]=[V+2] + O
viscosity, 100 kPa
Conditions	293.15 K	298.15 K	303.15 K	308.15 K	313.15 K	318.15 K
x1 = 0.002247	–	–	–	–	0.7091 mPa·s	0.6471 mPa·s
x1 = 0.00448	1.189 mPa·s	–	0.943 mPa·s	0.8499 mPa·s	0.7702 mPa·s and 0.7702 mPa·s	0.7025 mPa·s and 0.7025 mPa·s
x1 = 0.006709	1.297 mPa·s	1.148 mPa·s	1.024 mPa·s	0.9205 mPa·s and 0.9205 mPa·s	0.8326 mPa·s and 0.8326 mPa·s	0.7572 mPa·s and 0.7572 mPa·s
x1 = 0.008924	1.418 mPa·s	1.252 mPa·s	1.115 mPa·s	1.001 mPa·s	0.9046 mPa·s	0.8211 mPa·s
x1 = 0.00893	–	–	–	1.001 mPa·s	0.9046 mPa·s	0.8211 mPa·s
x1 = 0.0111	–	–	–	1.085 mPa·s	0.978 mPa·s	0.8867 mPa·s
x1 = 0.01113	1.548 mPa·s	1.364 mPa·s	1.212 mPa·s	1.085 mPa·s	0.978 mPa·s	0.8867 mPa·s
x1 = 0.0133	–	–	–	1.182 mPa·s	1.063 mPa·s	0.9628 mPa·s
x1 = 0.01333	1.696 mPa·s	1.491 mPa·s	1.322 mPa·s	1.182 mPa·s	1.063 mPa·s	0.9628 mPa·s
x1 = 0.0155	–	–	–	1.284 mPa·s	1.153 mPa·s	1.041 mPa·s
x1 = 0.01552	1.854 mPa·s	1.627 mPa·s	1.44 mPa·s	1.284 mPa·s	1.153 mPa·s	1.041 mPa·s
x1 = 0.0177	2.031 mPa·s	1.777 mPa·s	1.57 mPa·s	1.396 mPa·s and 1.396 mPa·s	1.25 mPa·s and 1.25 mPa·s	1.127 mPa·s and 1.127 mPa·s
x1 = 0.01986	2.226 mPa·s	1.943 mPa·s	1.711 mPa·s	1.521 mPa·s and 1.52 mPa·s	1.36 mPa·s and 1.36 mPa·s	1.223 mPa·s and 1.223 mPa·s
x1 = 0.02202	2.436 mPa·s	2.121 mPa·s	–	–	–	–
x1 = 0.02418	2.662 mPa·s	2.312 mPa·s	2.027 mPa·s	1.792 mPa·s and 1.792 mPa·s	1.597 mPa·s and 1.597 mPa·s	1.431 mPa·s and 1.431 mPa·s
x1 = 0.02631	2.893 mPa·s	2.509 mPa·s	2.196 mPa·s	1.938 mPa·s and 1.938 mPa·s	1.725 mPa·s and 1.725 mPa·s	1.544 mPa·s and 1.544 mPa·s
x1 = 0.02846	3.178 mPa·s	2.736 mPa·s	2.388 mPa·s	2.092 mPa·s	1.848 mPa·s	1.642 mPa·s
x1 = 0.03056	3.499 mPa·s	3.004 mPa·s	2.617 mPa·s	2.291 mPa·s	2.022 mPa·s	1.795 mPa·s
